Experimental data published in US20260092099A1 (SPIN THERAPEUTICS, published 2026).

T1: human neutrophil elastase (human, UniProt P08246 30-247, limits assumed)
T1 sequence (looked up): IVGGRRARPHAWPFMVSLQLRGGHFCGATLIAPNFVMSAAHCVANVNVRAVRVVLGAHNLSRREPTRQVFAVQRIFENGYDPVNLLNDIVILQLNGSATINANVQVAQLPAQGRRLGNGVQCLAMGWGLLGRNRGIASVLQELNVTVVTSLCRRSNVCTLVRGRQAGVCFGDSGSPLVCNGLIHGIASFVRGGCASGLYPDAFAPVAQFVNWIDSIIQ

B1: AAT-albumin fusion, base C232S, M351V, M358L with K335A/S283C/P361C (other)
chain: EDPQGDAAQKTDTSHHDQDHPTFNKITPNLAEFAFSLYRQLAHQSNSTNIFFSPVSIATAFAMLSLGTKADTHDEILEGLNFNLTEIPEAQIHEGFQELLRTLNQPDSQLQLTTGNGLFLSEGLKLVDKFLEDVKKLYHSEAFTVNFGDTEEAKKQINDYVEKGTQGKIVDLVKELDRDTVFALVNYIFFKGKWERPFEVKDTEEEDFHVDQVTTVKVPMMKRLGMFNIQHSKKLSSWVLLMKYLGNATAIFFLPDEGKLQHLENELTHDIITKFLENEDRRCASLHLPKLSITGTYDLKSVLGQLGITKVFSNGADLSGVTEEAPLKLSKAVHAAVLTIDEKGTEAAGAVFLEAIPLSICPEVKFNKPFVFLMIEQNTKSPLFMGKVVNPTQKGGSGGSGGSGGSGG[skipping about 600 residues]
B2: AAT-albumin fusion, base C232S, M351V, M358L with K331F/K168C/F189C (other)
chain: EDPQGDAAQKTDTSHHDQDHPTFNKITPNLAEFAFSLYRQLAHQSNSTNIFFSPVSIATAFAMLSLGTKADTHDEILEGLNFNLTEIPEAQIHEGFQELLRTLNQPDSQLQLTTGNGLFLSEGLKLVDKFLEDVKKLYHSEAFTVNFGDTEEAKKQINDYVEKGTQGCIVDLVKELDRDTVFALVNYICFKGKWERPFEVKDTEEEDFHVDQVTTVKVPMMKRLGMFNIQHSKKLSSWVLLMKYLGNATAIFFLPDEGKLQHLENELTHDIITKFLENEDRRSASLHLPKLSITGTYDLKSVLGQLGITKVFSNGADLSGVTEEAPLKLSFAVHKAVLTIDEKGTEAAGAVFLEAIPLSIPPEVKFNKPFVFLMIEQNTKSPLFMGKVVNPTQKGGSGGSGGSGGSGG[skipping about 600 residues]
B3: AAT-albumin fusion, base C232S, M351V, M358L with K331F/K335A (other)
chain: EDPQGDAAQKTDTSHHDQDHPTFNKITPNLAEFAFSLYRQLAHQSNSTNIFFSPVSIATAFAMLSLGTKADTHDEILEGLNFNLTEIPEAQIHEGFQELLRTLNQPDSQLQLTTGNGLFLSEGLKLVDKFLEDVKKLYHSEAFTVNFGDTEEAKKQINDYVEKGTQGKIVDLVKELDRDTVFALVNYIFFKGKWERPFEVKDTEEEDFHVDQVTTVKVPMMKRLGMFNIQHSKKLSSWVLLMKYLGNATAIFFLPDEGKLQHLENELTHDIITKFLENEDRRSASLHLPKLSITGTYDLKSVLGQLGITKVFSNGADLSGVTEEAPLKLSFAVHAAVLTIDEKGTEAAGAVFLEAIPLSIPPEVKFNKPFVFLMIEQNTKSPLFMGKVVNPTQKGGSGGSGGSGGSGG[skipping about 600 residues]
B4: AAT-albumin fusion, base C232S, M351V, M358L with F51L/K168C/F189C (other)
chain: EDPQGDAAQKTDTSHHDQDHPTFNKITPNLAEFAFSLYRQLAHQSNSTNILFSPVSIATAFAMLSLGTKADTHDEILEGLNFNLTEIPEAQIHEGFQELLRTLNQPDSQLQLTTGNGLFLSEGLKLVDKFLEDVKKLYHSEAFTVNFGDTEEAKKQINDYVEKGTQGCIVDLVKELDRDTVFALVNYICFKGKWERPFEVKDTEEEDFHVDQVTTVKVPMMKRLGMFNIQHSKKLSSWVLLMKYLGNATAIFFLPDEGKLQHLENELTHDIITKFLENEDRRSASLHLPKLSITGTYDLKSVLGQLGITKVFSNGADLSGVTEEAPLKLSKAVHKAVLTIDEKGTEAAGAVFLEAIPLSIPPEVKFNKPFVFLMIEQNTKSPLFMGKVVNPTQKGGSGGSGGSGGSGG[skipping about 600 residues]
B5: AAT-albumin fusion, base C232S, M351V, M358L with G117F/K335A (other)
chain: EDPQGDAAQKTDTSHHDQDHPTFNKITPNLAEFAFSLYRQLAHQSNSTNIFFSPVSIATAFAMLSLGTKADTHDEILEGLNFNLTEIPEAQIHEGFQELLRTLNQPDSQLQLTTGNFLFLSEGLKLVDKFLEDVKKLYHSEAFTVNFGDTEEAKKQINDYVEKGTQGKIVDLVKELDRDTVFALVNYIFFKGKWERPFEVKDTEEEDFHVDQVTTVKVPMMKRLGMFNIQHSKKLSSWVLLMKYLGNATAIFFLPDEGKLQHLENELTHDIITKFLENEDRRSASLHLPKLSITGTYDLKSVLGQLGITKVFSNGADLSGVTEEAPLKLSKAVHAAVLTIDEKGTEAAGAVFLEAIPLSIPPEVKFNKPFVFLMIEQNTKSPLFMGKVVNPTQKGGSGGSGGSGGSGG[skipping about 600 residues]
B6: AAT-albumin fusion, base C232S, M351V, M358L with F51L/K335A (other)
chain: EDPQGDAAQKTDTSHHDQDHPTFNKITPNLAEFAFSLYRQLAHQSNSTNILFSPVSIATAFAMLSLGTKADTHDEILEGLNFNLTEIPEAQIHEGFQELLRTLNQPDSQLQLTTGNGLFLSEGLKLVDKFLEDVKKLYHSEAFTVNFGDTEEAKKQINDYVEKGTQGKIVDLVKELDRDTVFALVNYIFFKGKWERPFEVKDTEEEDFHVDQVTTVKVPMMKRLGMFNIQHSKKLSSWVLLMKYLGNATAIFFLPDEGKLQHLENELTHDIITKFLENEDRRSASLHLPKLSITGTYDLKSVLGQLGITKVFSNGADLSGVTEEAPLKLSKAVHAAVLTIDEKGTEAAGAVFLEAIPLSIPPEVKFNKPFVFLMIEQNTKSPLFMGKVVNPTQKGGSGGSGGSGGSGG[skipping about 600 residues]
B7: AAT-albumin fusion, base C232S, M351V, M358L with F51L/S283C/P361C (other)
chain: EDPQGDAAQKTDTSHHDQDHPTFNKITPNLAEFAFSLYRQLAHQSNSTNILFSPVSIATAFAMLSLGTKADTHDEILEGLNFNLTEIPEAQIHEGFQELLRTLNQPDSQLQLTTGNGLFLSEGLKLVDKFLEDVKKLYHSEAFTVNFGDTEEAKKQINDYVEKGTQGKIVDLVKELDRDTVFALVNYIFFKGKWERPFEVKDTEEEDFHVDQVTTVKVPMMKRLGMFNIQHSKKLSSWVLLMKYLGNATAIFFLPDEGKLQHLENELTHDIITKFLENEDRRCASLHLPKLSITGTYDLKSVLGQLGITKVFSNGADLSGVTEEAPLKLSKAVHKAVLTIDEKGTEAAGAVFLEAIPLSICPEVKFNKPFVFLMIEQNTKSPLFMGKVVNPTQKGGSGGSGGSGGSGG[skipping about 600 residues]
B8: AAT-albumin fusion, base C232S, M351V, M358L with F51L/K331F (other)
chain: EDPQGDAAQKTDTSHHDQDHPTFNKITPNLAEFAFSLYRQLAHQSNSTNILFSPVSIATAFAMLSLGTKADTHDEILEGLNFNLTEIPEAQIHEGFQELLRTLNQPDSQLQLTTGNGLFLSEGLKLVDKFLEDVKKLYHSEAFTVNFGDTEEAKKQINDYVEKGTQGKIVDLVKELDRDTVFALVNYIFFKGKWERPFEVKDTEEEDFHVDQVTTVKVPMMKRLGMFNIQHSKKLSSWVLLMKYLGNATAIFFLPDEGKLQHLENELTHDIITKFLENEDRRSASLHLPKLSITGTYDLKSVLGQLGITKVFSNGADLSGVTEEAPLKLSFAVHKAVLTIDEKGTEAAGAVFLEAIPLSIPPEVKFNKPFVFLMIEQNTKSPLFMGKVVNPTQKGGSGGSGGSGGSGG[skipping about 600 residues]
B9: AAT-albumin fusion, base C232S, M351V, M358L with F51L/G117F (other)
chain: EDPQGDAAQKTDTSHHDQDHPTFNKITPNLAEFAFSLYRQLAHQSNSTNILFSPVSIATAFAMLSLGTKADTHDEILEGLNFNLTEIPEAQIHEGFQELLRTLNQPDSQLQLTTGNFLFLSEGLKLVDKFLEDVKKLYHSEAFTVNFGDTEEAKKQINDYVEKGTQGKIVDLVKELDRDTVFALVNYIFFKGKWERPFEVKDTEEEDFHVDQVTTVKVPMMKRLGMFNIQHSKKLSSWVLLMKYLGNATAIFFLPDEGKLQHLENELTHDIITKFLENEDRRSASLHLPKLSITGTYDLKSVLGQLGITKVFSNGADLSGVTEEAPLKLSKAVHKAVLTIDEKGTEAAGAVFLEAIPLSIPPEVKFNKPFVFLMIEQNTKSPLFMGKVVNPTQKGGSGGSGGSGGSGG[skipping about 600 residues]
B10: AAT-albumin fusion, base C232S, M351V, M358L with K335A (other)
chain: EDPQGDAAQKTDTSHHDQDHPTFNKITPNLAEFAFSLYRQLAHQSNSTNIFFSPVSIATAFAMLSLGTKADTHDEILEGLNFNLTEIPEAQIHEGFQELLRTLNQPDSQLQLTTGNGLFLSEGLKLVDKFLEDVKKLYHSEAFTVNFGDTEEAKKQINDYVEKGTQGKIVDLVKELDRDTVFALVNYIFFKGKWERPFEVKDTEEEDFHVDQVTTVKVPMMKRLGMFNIQHSKKLSSWVLLMKYLGNATAIFFLPDEGKLQHLENELTHDIITKFLENEDRRSASLHLPKLSITGTYDLKSVLGQLGITKVFSNGADLSGVTEEAPLKLSKAVHAAVLTIDEKGTEAAGAVFLEAIPLSIPPEVKFNKPFVFLMIEQNTKSPLFMGKVVNPTQKGGSGGSGGSGGSGG[skipping about 600 residues]
B11: AAT-albumin fusion, base C232S, M351V, M358L with G117F/K331F (other)
chain: EDPQGDAAQKTDTSHHDQDHPTFNKITPNLAEFAFSLYRQLAHQSNSTNIFFSPVSIATAFAMLSLGTKADTHDEILEGLNFNLTEIPEAQIHEGFQELLRTLNQPDSQLQLTTGNFLFLSEGLKLVDKFLEDVKKLYHSEAFTVNFGDTEEAKKQINDYVEKGTQGKIVDLVKELDRDTVFALVNYIFFKGKWERPFEVKDTEEEDFHVDQVTTVKVPMMKRLGMFNIQHSKKLSSWVLLMKYLGNATAIFFLPDEGKLQHLENELTHDIITKFLENEDRRSASLHLPKLSITGTYDLKSVLGQLGITKVFSNGADLSGVTEEAPLKLSFAVHKAVLTIDEKGTEAAGAVFLEAIPLSIPPEVKFNKPFVFLMIEQNTKSPLFMGKVVNPTQKGGSGGSGGSGGSGG[skipping about 600 residues]

What follows are binders tested against T1, human neutrophil elastase (assay: cell-based or functional assay).

Binder | IC50 (nM), neutrophil elastase inhibitory assay [nM]
B1 | 8.55
B2 | 28
B3 | 9.3
B4 | 23.3
B5 | 8.58
B6 | 10.7
B7 | 16
B8 | 9.18
B9 | 19
B10 | 5.96
B11 | 8.94
